The other results are listed elsewhere or left out.
Each sequence was assayed on PfHDP1 homeodomain (GST-tagged) (assay: gcPBM binding intensity (ln(normalized median fluorescence intensity)); higher = stronger DNA binding).
How it was run: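 Binding intensity is defined as the maximum Masliner-normalised natural-log median intensity across replicate spots for either probe orientation. It was measured on an Agilent 4 × 180k array of primer-extended double-stranded 36-bp intergenic genomic probes and negative controls, to which GST-tagged P. falciparum DNA-binding domains made in E. coli were applied for 1 h in 1× PBS with 1% milk, 0.2 mg/ml BSA, 0.5% salmon testes DNA and 0.03% Triton X-100. Detection was by Alexa488 anti-GST antibody and scanning at 488 nm.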

Sequence | gcPBM binding intensity (ln)
ATACACATTCTTCCGACATAATAAGAAAAAGAAAAA [CACACA_negctrl_site9] | 6.32
TATAAACCTTTTTGCACGCACACAAAAAAAAAATAA [CACACA_site168] | 9.61
AAACATATATACATATGTACATATATACATATATGT [XGTACX_site5779] | 6.53
GACTATAATGTTTTGGTGCGTCATGTTATGGTCATC | 6.6
GATTAACAACATATTAGTACATATATTATATATATA [XGTACX_site7646] | 7.3
TTCGGAAAAATTAAAGCACACAAAAAAAAATAAAAA [CACACA_site8296] | 6.55
CAAAAGGATATGCACACACACACACGGATATTTATA [CACACA_site7099] | 10.1
TTTTGTTATTAGAGGGTGCTTATAATGAACTCCTAC | 6.36
TCAATCATCTTATATAGTACACATAAAAGTATTATA [XGTACX_site8513] | 6.17
GACAAAATGATAGGGACACACAATATCAATGTTTAA [CACACA_site765] | 6.01
ATTACATTAATAAGAGTGCATTATATAAGTTTTATG | 8.58
AAAAAAAAAAATCCAGTGCATATATTTTTTACATAT | 8.69
CCACTAATAAATATTACACACATATAGATTTATATT [CACACA_site7465] | 6.65
TTATTTTTTTTATATATATGTATAAATATATATATA [XGTACX_negctrl_site441] | 7.84
AGGCACACAAACATATGTACACATATATATATATAT [XGTACX_site4723] | 9.26
ATATAACATATCAATTGTACGTATTGATAATATATA [XGTACX_site2504] | 6.28
ATATTTATATGGTTTGCACACATAACAACTATGGTT [CACACA_site3631] | 9.75
TTTTGTTTTAATTTTATTTGATTTTATTTGATTTAT [CACACA_negctrl_site692] | 6.68
TTTATTGAACGTACACATATATATATGTATATATTT [TGCATGCA_negctrl_site141] | 6.71
AAATATTATTTATTTACACACCAATCTTCTTTTCTT [CACACA_site3990] | 6.43

Sequence | gcPBM binding intensity (ln)
TACGTTCTAATATATACACACCTGGTATTAATTATG [CACACA_site5260] | 6.64
ATATATATAAAATATACACACATACTGTTCATTTAA [CACACA_site6149] | 6.63
TTTTATTATTAATTTCTTTTTTCTCATCACTTTCAA [XGTACX_negctrl_site117] | 6.45
TTTACAAAAAATTATACACACACGTACATATAAATA [CACACA_site945] | 6.6
TAATTTATGAGTAATACACACACTTGTGGATATATT [CACACA_site3790] | 6.73
AAAAAAAAAAATTACACACATACATATAATAATAAT [CACACA_site2193] | 6.55
AAAAACTTAATATTCACACATATATATATATATATA [CACACA_site5240] | 9.48
CGTATATATATATACACACACATATATATATGTAAA [CACACA_site195] | 6.81
TATTTCCATTCATAATTTTGTAGAATATATAACCGT [CACACA_negctrl_site1531] | 6.4
AAATAAAGATATATATATATATATATATATAATTTT [CACACA_negctrl_site30] | 7.02
AATATAAAAAGGCACACACACAAAAAAAAAAAAAAA [CACACA_site896] | 6.56
AAATATTTTGCATACACATGCAAATATTTTTTACAT [TGCATGCA_site554] | 7.05
AAAATGTGCATATTTGCACACTTCAATATATATATA [CACACA_site1791] | 11.2
CATAAATCAGCCATAACACACATACCTATATACATA [CACACA_site6324] | 6.45
AATCTCAGAATATACTGTACTTTAAGAAAAAAAAAA [XGTACX_site110] | 6.14
AATATATATTTGTGTACACATTATATATATATATAT [CACACA_site6103] | 9.23
AAAATTTAAATAGGAAGTACGTTCACTAAGAAAATA [XGTACX_site6546] | 6.87
TGAAAGAACCTGATTACACACATAAGTTATAAATAT [CACACA_site6165] | 6.19
TTCTTTATTTTTTCTACACACATTATGTATTCAAAG [CACACA_site3527] | 7.51
TGAAAGAATGTTAATAGTACACACAATTATTATATA [XGTACX_site7936] | 6.38

Sequence | gcPBM binding intensity (ln)
TAAGAACTATTCAGTAGTACCTATATGGATTACTAA [XGTACX_site4278] | 5.72
ATTGATATTGTATAATGTACAGGAAAAAAAAAAAAA [XGTACX_site526] | 6.59
GAAAATATTAAATGAAGTACAATATTTATGTTACTT [XGTACX_site8737] | 6
TTTTATATTTTAAGAGTGCATTTTATATCTTTTTCT | 7.98
TTTATATTTCTTCATCGTACACATAAAAAAAAAAAA [XGTACX_site3244] | 6.74
ATACTCACGAAACACACACACAATATATATATATAT [CACACA_site4136] | 9.18
AGGATATGCGGACACACACACATATATATATATATA [CACACA_site5247] | 9.38
ATAATTTAAAAACATTGTACATTAATATATATGTAT [XGTACX_site8970] | 6.24
ATAATAACTGATAAATGTACATATAAATTTTATGAT [XGTACX_site195] | 6.72
GAAAATTTAAAAAGAGTGCATTATATGTTTGAATAT [GTGCAC_site9564] | 8.73
TTTAACGAATAAAAATGTACAAATTTATACATTTAT [XGTACX_site2805] | 6.09
AATAAAATAATAAAAGCACACAAGAATACACCCAAA [CACACA_site7919] | 7.1
CTTTTTTTCTTTCCAAGTACTAAATTCATACAAATT [XGTACX_site2605] | 6.37
TTTTATTTATAATACTCACACATTTATATTACATAT [CACACA_site6000] | 6.69
CAAAAGGATGTGGGATGTACATATGAAAAAAAAAAA [XGTACX_site8059] | 6.6
TAAATTTAAAAATCTGCACACATTTAAAAAAAAAAA [CACACA_site2515] | 7.28
ATTACTAAAAAATATAAACACACATATATTTTACAT [CACACA_site8633] | 6.58
GGTCTTTTTTTCAAAAGTACATAAATAAAAAAGGTT [XGTACX_site2894] | 6.59
